In PubChem BioAssay AID1745853 (National Center for Advancing Translational Sciences (NCATS), 2022):
Some of the results follow. Shown are side measurements of this screen, not its main read-out; they come without a call.

Tests used:
Experiment in all cases: Primary Screen for Target Class Profiling of Small Molecule Inhibitors of Methyltransferases
[1] = target: Glycine N-methyltransferase (Homo sapiens) (UniProt Q14749); conditions: purified enzyme, MTase-Glo SAH luminescence; measured here: GNMT inhibition; at 40 µM; stronger effect = lower value
Procedure, shortened: (§1)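 Each enzyme was assayed with SAM and its substrate. SAH formation detected by MTase-Glo luminescence; single-point 40 uM screen[…].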

[2] = target: Guanidinoacetate N-methyltransferase (Homo sapiens) (UniProt Q14353); conditions: purified enzyme, MTase-Glo SAH luminescence; measured here: GAMT inhibition; at 40 µM; stronger effect = lower value
Procedure, shortened: as §1

[3] = target: Histamine N-methyltransferase (Homo sapiens) (UniProt P50135); conditions: purified enzyme, MTase-Glo SAH luminescence; measured here: HNMT inhibition; at 40 µM; stronger effect = lower value
Procedure, shortened: as §1

[4] = target: Nicotinamide N-methyltransferase (Homo sapiens) (UniProt P40261); conditions: purified enzyme, MTase-Glo SAH luminescence; measured here: NNMT inhibition; at 40 µM; stronger effect = lower value
Procedure, shortened: as §1

[5] = target: Phenylethanolamine N-methyltransferase (Homo sapiens) (UniProt P11086); conditions: purified enzyme, MTase-Glo SAH luminescence; measured here: PNMT inhibition; at 40 µM; stronger effect = lower value
Procedure, shortened: as §1
On the % scale 0 is the no-effect control and ±100 the full control effect.

Compound | activity change, negative = inhibition [1] | activity change, negative = inhibition [2] | activity change, negative = inhibition [3] | activity change, negative = inhibition [4] | activity change, negative = inhibition [5]
CCOCCCN1C(=O)c2c(NC(C)=O)c3cc(F)ccc3n2CC1(C)C(=O)NC1CCCCC1 (stereo not given) | -9.57% | -0.279% | -4.93% | -4.67% | -3.91%
O=C(O)c1ccnc2cc(-c3nc4ccccc4n3CCN3CCCCC3)sc12 | -10.6% | -5.77% | -0.702% | -26.2% | -1%
CC1(CNC(=O)c2n[nH]c3ccccc23)CCOCC1 | -2.54% | -3.84% | -2.73% | -6.42% | -3.72%
CN1[C@@H]2CC[C@H]1CC(OC(=O)c1c[nH]c3ccccc13)C2 (stereo not given in full) | 4.22% | 10.5% | 0.847% | -7.68% | 4.78%
Cc1ccc(CN2C[C@]34C=C[C@H](O3)C(C(=O)N(C)Cc3ccsc3)C4C2=O)cc1C (stereo not given in full) | -0.883% | -0.486% | 1.9% | -1.45% | -11.2%
CCC(C)NC(=O)c1ccc2c(=O)n(C(C)C)c3nn(CC(=O)NCc4ccc(F)cc4)c(=O)n3c2c1 (stereo not given) | 2.75% | 0% | 3.97% | -3% | 0.994%
CCCC(C)c1c(-c2ccccc2)ncn1CCNC(C)=O (stereo not given) | -2.61% | 1.47% | 2.82% | -11% | -0.548%
COc1ccc(-c2nnc3n(Cc4ccccc4)c(=O)c4ccccc4n23)cc1 | -10% | 2.29% | -2.14% | -6.43% | -7.11%
COc1ccc2cc(C(=O)N3CC4CC(C3)[C@H]3CCCC(=O)N3C4)[nH]c2c1 (stereo not given in full) | -3.27% | -0.329% | -0.325% | -3.08% | 6.91%
O=C1CCC2(CCN1Cc1ccccc1)CCN(C(=O)c1ccccc1F)CC2 | -0.093% | -1.5% | -1.16% | -3.28% | -0.276%
CNC(=O)c1cc(C)nc2onc(C3CCN(C(=O)C4CCCC4)CC3)c12 | -5.68% | -8.35% | -2.13% | -14.2% | -13.5%
O=C(O)C1Cc2c([nH]c3ccccc23)C(c2ccc3c(c2)OCO3)N1 (stereo not given) | 11.9% | 2.68% | 14.3% | 4.23% | 9.59%
CC(C)CCN1C(=O)c2ccccc2CC1(C)C(=O)NC1CCCCCCC1 (stereo not given) | 3.06% | 1.15% | 9.62% | -1.82% | 2.49%
COc1ccc(-c2cc3n(n2)CC(C)(C(=O)NCc2ccccc2)N(Cc2ccc(C)o2)C3=O)cc1 (stereo not given) | 2.11% | 1.6% | 5.26% | -2.47% | 0.199%
CC(C)CCn1c(=O)c2ccc(C(=O)NC3CCCC3)cc2n2c(=O)n(Cc3ccccc3Cl)nc12 | 2.57% | 0.937% | 8.34% | -1.65% | 4.64%
COC(=O)c1ccc2c(=O)[nH]c3c(C(=O)NCc4ccc5c(c4)OCO5)sc(=S)n3c2c1 | -19.2% | 0% | 11.1% | -4.97% | -3.25%
CC(C)CCNC(=O)c1ccc2c(=O)[nH]c3c(C(=O)NC4CCCC4)sc(=S)n3c2c1 | -22.5% | 2.06% | -6.3% | -32.9% | -27.3%
COc1ccc(Cl)cc1NS(=O)(=O)c1ccc2c(c1)n(C)c(=O)n2C | 10.4% | 0% | 5.76% | -4.66% | 2.87%
COC(=O)c1nc(NC(=O)Cn2nc3c(cc2=O)CCCC3)sc1C(C)C | -63.7% | 4.17% | 0.285% | -14% | 10.5%
CC[C@H](C)[C@H](NC(=O)[C@H](Cc1ccc(O)cc1)NC(=O)[C@@H](N)C(C)C)C(=O)N[C@@H](Cc1cnc[nH]1)C(=O)N1CCC[C@H]1C(=O)N[C@@H](Cc1ccccc1)C(=O)O | -2% | -5.57% | 12.5% | -12.7% | 2.39%

Compound | activity change, negative = inhibition [1] | activity change, negative = inhibition [2] | activity change, negative = inhibition [3] | activity change, negative = inhibition [4] | activity change, negative = inhibition [5]
O=C(NC1CCOC2(CCOCC2)C1)c1ccc(-c2cnco2)cc1 (stereo not given) | -1.95% | -3% | -0.994% | -9.27% | -4.67%
CCCOc1ccc(CN2C(=O)c3cc4occc4n3CC2(C)C(=O)NC2CCCCCC2)cc1 (stereo not given) | -0.458% | 4.94% | 1.79% | -5.77% | -4.98%
O=C(Cn1nc2n(c1=O)CCCC2)NCc1ccc(F)cc1 | -6.14% | -11.5% | -4% | -9.32% | -9.35%
CC1(C)[C@H]2CC[C@@H](CNC(=O)C3CC3)[C@@H]1C2 | -5.05% | -6.18% | -1.3% | -12% | 7.71%
Cc1ccn(CC(=O)NCc2cccnc2Oc2ccccc2)n1 | -3.06% | -5.8% | -1.07% | -8.06% | -1.59%
CC1CCC(NC(=O)C2(C)Cn3c(cc4sccc43)C(=O)N2Cc2ccccn2)CC1 (stereo not given) | -7.63% | 1.49% | -4.67% | -11.1% | -9.41%
CCN(CC)CCNC(=O)CCn1ccc2cc(S(=O)(=O)N3CCCCC3)ccc21 | -1.27% | 2.38% | -15.9% | 1.15% | 1.53%
CC1=NOC2(CCN(C(=O)c3ccccc3)CC2)C1 | -5.01% | -13.6% | -1.85% | -8.67% | -4.02%
CC1CCC(NC(=O)C2(C)Cc3ccccc3C(=O)N2Cc2ccccc2Cl)CC1 (stereo not given) | -1.28% | 0% | 4.74% | -3.92% | -0.098%
CCCn1c(=O)c2ccc(C(=O)NC(C)C)cc2n2c(=O)n(CC(=O)c3ccc(OC)cc3)nc12 | -1.36% | 4.58% | 3.07% | -1.13% | -1.15%
Cc1cc(C(=O)N2CCOC(Cc3cccc(C(F)(F)F)c3)C2)nn1C (stereo not given) | -1.55% | 0.053% | 1.63% | -4.81% | -0.866%
CCCC1O[C@@H]2C[C@H]3[C@@H]4CCC5=CC(=O)C=C[C@]5(C)[C@H]4[C@@H](O)C[C@]3(C)[C@]2(C(=O)CO)O1 (stereo not given in full) | 3.21% | 11.7% | 11.6% | -16.6% | 1.56%
O=C(Cn1nc2n(c1=O)CCCC2)NCCc1ccc(Cl)cc1 | -1.29% | 0.252% | 0.6% | 2.11% | -0.199%
NCCC1CCCC(CCN)N1 (stereo not given) | 0.988% | 8.83% | 3.67% | -1.61% | 3%
CNC(=O)[C@@H](c1ccccc1)N1CCc2cc(OC)c(OC)cc2[C@@H]1CCc1ccc(C(F)(F)F)cc1 | -0.898% | -8.03% | -3.7% | -28% | -8.57%
O=C1CCC(CCC(=O)N2CCC(c3ccc(F)cc3)C2)(Cc2ccc3ccccc3c2)N1 (stereo not given) | -1.4% | -8.5% | 1.96% | 1.5% | 2.21%
Cc1ccc(NC(=O)Cn2nc3n(CC(C)C)c(=O)c4ccc(C(=O)NCC(C)C)cc4n3c2=O)c(C)c1 | 5.06% | 0.219% | 8.06% | 1.7% | 3.45%
CC1(CCC(=O)O)C(=O)C=CC23CC4CC(OC4(C)C2O)C13 (stereo not given) | -3.35% | -4.12% | 2.12% | -12.5% | 3.49%
Cc1ccccc1CN1Cc2nc(-c3ccccc3)ccc2OCC1=O | -15% | -7.05% | -5.89% | -22.3% | -21%
COc1ccc(-c2n[nH]n3c2nc(=O)c2ccc(C(=O)NCc4cccc(OC)c4)cc23)cc1 | -13.9% | 0% | 2.62% | 4.24% | -4.17%

Compound | activity change, negative = inhibition [1] | activity change, negative = inhibition [2] | activity change, negative = inhibition [3] | activity change, negative = inhibition [4] | activity change, negative = inhibition [5]
CCOC(=O)[C@H](CCc1ccccc1)N[C@H]1CCCN2CCC[C@@H](C(=O)O)N2C1=O |  | 5.66% |  | -9.09% | 4.85%
CCC1CCCCN1C(=O)Cn1c(=O)oc2cc(S(=O)(=O)N3CC(C)CC(C)C3)ccc21 (stereo not given) | 3.58% | 0% | 9.55% | -6.67% | -4.03%
CCCNC(=O)CCn1ccc2cc(S(=O)(=O)N3CCCCC3)ccc21 | 2.43% | 0% | 5.53% | 7.8% | 1.07%
COc1ccc(-c2cc(C[C@H]3CNCC[C@H]3CC(=O)N3CCOCC3)no2)cc1 | 1.52% | -0.154% | 1.38% | -0.637% | 2.63%
CC(=O)Nc1c2n(c3ccccc13)CC(C)(C(=O)NC1CCCCC1)N(C1CCC(C)CC1)C2=O (stereo not given) | 2.19% | -0.44% | -3.4% | -6.29% | 1.05%
O=C(c1ccc(/C=C/c2n[nH]c3ccccc23)cc1)N1CCNCC1 | -6.88% | -4.74% | 3.74% | -18.7% | -46.1%
O=C(Cn1ccc2cc(S(=O)(=O)N3CCCC3)ccc21)NCc1ccc(Cl)cc1 | 5.31% | 0.405% | 3.16% | 2.44% | 1.43%
CCS(=O)(=O)Nc1ccc(C(=O)NCc2cc3n(n2)CCNC3)cc1 | -4.54% | -9.2% | -2.21% | -13.3% | -10%
Cc1nc(C2CC(O)C2)cc(N2CCN(c3cnn(C)c(=O)c3)CC2)n1 (stereo not given) | -3.98% | -2.15% | 0.165% | -7.29% | 0.269%
COc1cc(F)ccc1-c1cc(-c2ccc(=O)[nH]c2)c2cncn2c1 | -88.5% | -86.8% | -36.6% | -49.6% | -45.8%
COc1ccc(CCN2C(=O)c3cc4occc4n3CC2(C)C(=O)NC2CCC(C)CC2)cc1OC (stereo not given) | -4.64% | -1.23% | -2.47% | -28.8% | -9.48%
COc1cccc(OC)c1-c1cc(C(=O)N[C@@H](CC(C)C)C(=O)O)nn1-c1ccnc2cc(Cl)ccc12 | -4.48% | 4.99% | 11.3% | -24.9% | 3.16%
COc1ccc([C@@]2(O)c3c(ccc4c3OC(C)(CCC=C(C)C)C=C4)NC(=O)[C@@H]2OC)cc1 (stereo not given in full) | -1.01% | -2.65% | 5.93% | -18.2% | -5.55%
CCCNC(=O)NCC1c2cc(OC)c(OC)cc2CCN1C(=O)NCC (stereo not given) | -2.64% | -5.92% | -1.8% | -9.02% | -4.92%
O=C(c1c(OCC2CC2)cc(=O)n2c1CCOCC2)N1CCc2ccccc2C1 | -6.08% | -8.53% | -3.56% | -16.2% | 0.706%
COc1cccc(C(=O)Cn2nc3n(Cc4ccccc4)c(=O)c4ccccc4n3c2=O)c1 | 3.69% | 0% | 8.22% | 3.88% | 4.23%
CN(C)[C@@H]1CO[C@H](CNC(=O)c2ccncc2)[C@H]1O | -2.08% | -3.56% | 1.72% | 0.775% | 1.89%
COCC1CN(C)CC12CCN(Cc1sccc1C)CC2 (stereo not given) | -5.38% | -5.54% | -5.6% | -7.37% | -0.967%
Cn1nc(C(C)(C)C)cc1C(=O)NC(Cc1cccc(Cl)c1)C(=O)NCC#N (stereo not given) | 5.67% |  | 4.02% |  | 
C[C@@H]1O[C@@H](O[C@H]2[C@H](O[C@H]3CO[C@@H](O[C@H]4CC[C@@]5(C)C(CC[C@]6(C)C5CC[C@]57OC[C@@]8(CC[C@](C)(CO)CC85)[C@H](O)C[C@]76C)C4(C)C)[C@H](O[C@@H]4O[C@H](CO)[C@@H](O)[C@H](O)[C@H]4O)[C@H]3O)O[C@H](CO)[C@@H](O)[C@@H]2O)[C@H](O)[C@H](O)[C@H]1O (stereo not given in full) | -0.801% | -5.14% | -5.05% | -18.3% | 2.38%
